# Results published in the supplement of paper PMC8728848.
# This is one part of the list.
# B1: rCnSL-proA (Clitocybe nebularis) (protein)
# chain: AAFFSLVVLLALLPFGIHASALPSTELTPRVNPNLPGPNDVFVGFRGTNNIVGAIYEKDGIKDTPLNNGADAEMGPGSYITDGLFTARIFASGSAGNNPGTTATVCKIYASGVQWRGAPKGYIPVAYFGNGPTAEQRRQTYLRTLGLPGTAIRFGNLNTNPGQGPTAPRQMVVPPGPLRSLLKASCFPAADTRLPQTLHYFEKRVDWNIITAADSQTWGH
# Legend:
# Experiment in all cases: glycan array binding signal (z-score within array); higher = stronger binding
# Conditions in all cases: glycan notation: IUPAC condensed, linker removed
# Fuc(a1-3)GlcNAc = target: Fuc(a1-3)GlcNAc
# Method in brief: (§1)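 Columns mapping to the same glycan were averaged after glycan names were converted to IUPAC-condensed notation. The data come from 3228 arrays in the Consortium for Functional Glycomics database, limited to those with an available protein sequence. Binding is reported as a within-array Z-score averaged across arrays of one protein sequence and across linkers.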
# [1] = target: Fuc(a1-3)[Gal(b1-4)]Glc6S
# Method in brief: as §1
# [2] = target: Fuc(a1-3)[Gal(b1-4)]GlcNAc
# Method in brief: as §1
# [3] = target: Fuc(a1-3)[Gal(b1-4)]GlcNAc(b1-2)Man
# Method in brief: as §1
# [4] = target: Fuc(a1-3)[Gal(b1-4)]GlcNAc(b1-2)Man(a1-3)[Fuc(a1-3)[Gal(b1-4)]GlcNAc(b1-2)Man(a1-6)]Man(b1-4)GlcNAc(b1-4)GlcNAc
# Method in brief: as §1
# [5] = target: Fuc(a1-3)[Gal(b1-4)]GlcNAc(b1-2)Man(a1-3)[Fuc(a1-3)[Gal(b1-4)]GlcNAc(b1-2)Man(a1-6)]Man(b1-4)GlcNAc(b1-4)[Fuc(a1-6)]GlcNAc
# Method in brief: as §1
# [6] = target: Fuc(a1-3)[Gal(b1-4)]GlcNAc(b1-3)Gal(b1-3)[Fuc(a1-4)]GlcNAc
# Method in brief: as §1
# [7] = target: Fuc(a1-3)[Gal(b1-4)]GlcNAc(b1-3)Gal(b1-4)[Fuc(a1-3)]GlcNAc
# Method in brief: as §1
# [8] = target: Fuc(a1-3)[Gal(b1-4)]GlcNAc(b1-3)Gal(b1-4)[Fuc(a1-3)]GlcNAc(b1-3)Gal(b1-4)[Fuc(a1-3)]GlcNAc
# Method in brief: as §1
# [9] = target: Fuc(a1-3)[Gal(b1-4)]GlcNAc(b1-3)GalNAc
# Method in brief: as §1
# [10] = target: Fuc(a1-3)[Gal(b1-4)]GlcNAc(b1-6)GalNAc
# Method in brief: as §1
# [11] = target: Fuc(a1-3)[Gal(b1-4)]GlcNAc(b1-6)[Gal(b1-3)GlcNAc(b1-3)]Gal(b1-4)Glc
# Method in brief: as §1
# [12] = target: Fuc(a1-3)[Gal(b1-4)]GlcNAc6S
# Method in brief: as §1
# [13] = target: Fuc(a1-3)[Gal3S(b1-4)]Glc
# Method in brief: as §1
# [14] = target: Fuc(a1-3)[Gal3S(b1-4)]GlcNAc
# Method in brief: as §1
# [15] = target: Fuc(a1-3)[Gal3S(b1-4)]GlcNAc6S
# Method in brief: as §1
# [16] = target: Fuc(a1-3)[GalNAc(b1-4)]GlcNAc
# Method in brief: as §1
# [17] = target: Fuc(a1-3)[GalNAc(b1-4)]GlcNAc6S
# Method in brief: as §1
# Fuc(a1-4)GlcNAc = target: Fuc(a1-4)GlcNAc
# Method in brief: as §1
# Fuc(b1-3)GlcNAc = target: Fuc(b1-3)GlcNAc
# Method in brief: as §1
# Gal(a1-2)Gal = target: Gal(a1-2)Gal
# Method in brief: as §1
# Gal(a1-3)Gal = target: Gal(a1-3)Gal
# Method in brief: as §1
# Gal(a1-3)Gal(b1-3)GlcNAc = target: Gal(a1-3)Gal(b1-3)GlcNAc
# Method in brief: as §1
# [18] = target: Gal(a1-3)Gal(b1-3)GlcNAc(b1-2)Man
# Method in brief: as §1
# [19] = target: Gal(a1-3)Gal(b1-3)GlcNAc(b1-2)Man(a1-3)[Gal(a1-3)Gal(b1-3)GlcNAc(b1-2)Man(a1-6)]Man(b1-4)GlcNAc(b1-4)GlcNAc
# Method in brief: as §1
# [20] = target: Gal(a1-3)Gal(b1-3)GlcNAc(b1-3)GalNAc
# Method in brief: as §1
# [21] = target: Gal(a1-3)Gal(b1-3)GlcNAc(b1-6)GalNAc
# Method in brief: as §1
# [22] = target: Gal(a1-3)Gal(b1-3)[Fuc(a1-4)]GlcNAc(b1-2)Man(a1-3)[Gal(a1-3)Gal(b1-3)[Fuc(a1-4)]GlcNAc(b1-2)Man(a1-6)]Man(b1-4)GlcNAc(b1-4)GlcNAc
# Method in brief: as §1
# Gal(a1-3)Gal(b1-4)Glc = target: Gal(a1-3)Gal(b1-4)Glc
# Method in brief: as §1
# Gal(a1-3)Gal(b1-4)GlcNAc = target: Gal(a1-3)Gal(b1-4)GlcNAc
# Method in brief: as §1
# [23] = target: Gal(a1-3)Gal(b1-4)GlcNAc(b1-2)Man
# Method in brief: as §1
# [24] = target: Gal(a1-3)Gal(b1-4)GlcNAc(b1-2)Man(a1-3)[Gal(a1-3)Gal(b1-4)GlcNAc(b1-2)Man(a1-6)]Man(b1-4)GlcNAc(b1-4)GlcNAc
# Method in brief: as §1
# [25] = target: Gal(a1-3)Gal(b1-4)GlcNAc(b1-3)GalNAc
# Method in brief: as §1
# [26] = target: Gal(a1-3)Gal(b1-4)GlcNAc(b1-6)GalNAc
# Method in brief: as §1
# [27] = target: Gal(a1-3)Gal(b1-4)[Fuc(a1-3)]GlcNAc
# Method in brief: as §1
# [28] = target: Gal(a1-3)Gal(b1-4)[Fuc(a1-3)]GlcNAc(b1-2)Man(a1-3)[Gal(a1-3)Gal(b1-4)[Fuc(a1-3)]GlcNAc(b1-2)Man(a1-6)]Man(b1-4)GlcNAc(b1-4)GlcNAc
# Method in brief: as §1
# Gal(a1-3)GalNAc = target: Gal(a1-3)GalNAc
# Method in brief: as §1
# [29] = target: Gal(a1-3)[Gal(a1-4)]Gal(b1-4)GlcNAc
# Method in brief: as §1
# [30] = target: Gal(a1-4)Gal(b1-3)GlcNAc(b1-2)Man(a1-3)[Gal(a1-4)Gal(b1-3)GlcNAc(b1-2)Man(a1-6)]Man(b1-4)GlcNAc(b1-4)GlcNAc
# Method in brief: as §1
# Gal(a1-4)Gal(b1-4)Glc = target: Gal(a1-4)Gal(b1-4)Glc
# Method in brief: as §1
# Gal(a1-4)Gal(b1-4)GlcNAc = target: Gal(a1-4)Gal(b1-4)GlcNAc
# Method in brief: as §1
# [31] = target: Gal(a1-4)Gal(b1-4)GlcNAc(b1-2)Man(a1-3)[Gal(a1-4)Gal(b1-4)GlcNAc(b1-2)Man(a1-6)]Man(b1-4)GlcNAc(b1-4)GlcNAc
# Method in brief: as §1
# [32] = target: Gal(a1-4)Gal(b1-4)GlcNAc(b1-3)Gal(b1-4)Glc
# Method in brief: as §1
# Gal(a1-4)GlcNAc = target: Gal(a1-4)GlcNAc
# Method in brief: as §1
# Gal(a1-6)Glc = target: Gal(a1-6)Glc
# Method in brief: as §1
binder,measurement,setting,value
B1,glycan array binding signal (z-score),Fuc(a1-3)GlcNAc,-0.394
same,glycan array binding signal (z-score),[1],0.21
same,glycan array binding signal (z-score),[2],-0.632
same,glycan array binding signal (z-score),[3],-0.28
same,glycan array binding signal (z-score),[4],0.121
same,glycan array binding signal (z-score),[5],-0.036
same,glycan array binding signal (z-score),[6],-0.394
same,glycan array binding signal (z-score),[7],-0.163
same,glycan array binding signal (z-score),[8],-0.736
same,glycan array binding signal (z-score),[9],-0.051
same,glycan array binding signal (z-score),[10],0.153
same,glycan array binding signal (z-score),[11],0.16
same,glycan array binding signal (z-score),[12],0.115
same,glycan array binding signal (z-score),[13],-0.239
same,glycan array binding signal (z-score),[14],0.244
same,glycan array binding signal (z-score),[15],-0.206
same,glycan array binding signal (z-score),[16],-0.169
same,glycan array binding signal (z-score),[17],-0.537
same,glycan array binding signal (z-score),Fuc(a1-4)GlcNAc,0.109
same,glycan array binding signal (z-score),Fuc(b1-3)GlcNAc,-0.018
same,glycan array binding signal (z-score),Gal(a1-2)Gal,-0.278
same,glycan array binding signal (z-score),Gal(a1-3)Gal,-0.706
same,glycan array binding signal (z-score),Gal(a1-3)Gal(b1-3)GlcNAc,-0.421
same,glycan array binding signal (z-score),[18],-0.638
same,glycan array binding signal (z-score),[19],0.326
same,glycan array binding signal (z-score),[20],-0.186
same,glycan array binding signal (z-score),[21],-0.207
same,glycan array binding signal (z-score),[22],-1.23
same,glycan array binding signal (z-score),Gal(a1-3)Gal(b1-4)Glc,-0.201
same,glycan array binding signal (z-score),Gal(a1-3)Gal(b1-4)GlcNAc,-0.284
same,glycan array binding signal (z-score),[23],-0.316
same,glycan array binding signal (z-score),[24],1.2
same,glycan array binding signal (z-score),[25],-0.161
same,glycan array binding signal (z-score),[26],-0.551
same,glycan array binding signal (z-score),[27],-0.12
same,glycan array binding signal (z-score),[28],3.75
same,glycan array binding signal (z-score),Gal(a1-3)GalNAc,-0.045
same,glycan array binding signal (z-score),[29],-0.628
same,glycan array binding signal (z-score),[30],0.715
same,glycan array binding signal (z-score),Gal(a1-4)Gal(b1-4)Glc,-0.307
same,glycan array binding signal (z-score),Gal(a1-4)Gal(b1-4)GlcNAc,-0.429
same,glycan array binding signal (z-score),[31],3.37
same,glycan array binding signal (z-score),[32],-0.475
same,glycan array binding signal (z-score),Gal(a1-4)GlcNAc,-0.156
same,glycan array binding signal (z-score),Gal(a1-6)Glc,-0.274
